This is an account of results in the antibiotic and cytotoxicity screens of Wong et al. (2023).

The other results are listed elsewhere or left out.

One assay deals with HSkMC. The assay is described as follows: cytotoxicity call (relative viability < 0.9). The note with it: 10 µM.
For a further assay, the system named is HepG2. The assay can be described thus: cytotoxicity call (relative viability < 0.9). The note with it: 10 µM.
A further assay deals with S. aureus RN4220. The assay is described as follows: growth inhibition call (relative growth <= 0.2). The note with it: 50 µM.

As to `COc1ccccc1NC(=O)N(C)C[C@H]1Oc2ncc(C#CCN(C)C)cc2C(=O)N([C@@H](C)CO)C[C@H]1C`, the cytotoxicity call in the assay with HSkMC and in the assay with HepG2 was “inactive” throughout. In addition, the growth inhibition call in the assay on S. aureus RN4220 was “inactive”.

As for `COc1ccc(NC(=O)N(C)C[C@H]2OCCCC[C@H](C)Oc3ccc(NS(=O)(=O)c4ccc(C)cc4)cc3C(=O)N([C@@H](C)CO)C[C@H]2C)cc1`, the cytotoxicity call in the assay on HSkMC and with HepG2 was “inactive” in each case. Further, the growth inhibition call in the assay on S. aureus RN4220 was “inactive”.

With `N#CCOc1cccc2ccccc12`, the cytotoxicity call in the assay with HSkMC and with HepG2 was “inactive” throughout. Also, the growth inhibition call in the assay on S. aureus RN4220 is “inactive”.

`Cc1ccc(S(=O)(=O)Nc2ccc3c(c2)C(=O)N([C@H](C)CO)C[C@@H](C)[C@H](CN(C)S(=O)(=O)c2ccc(F)cc2)O3)cc1`: the cytotoxicity call with HSkMC and in the assay with HepG2 was “inactive” each time. The growth inhibition call in the assay with S. aureus RN4220 is “inactive”.

With `C[C@@H]1CN([C@@H](C)CO)C(=O)c2ccccc2-c2ccccc2CO[C@@H]1CN(C)Cc1ccc(C(F)(F)F)cc1`, the cytotoxicity call in the assay with HSkMC and with HepG2 was “inactive” throughout. Moreover, in the assay on S. aureus RN4220, the growth inhibition call is “inactive”.

With `CC(C)c1onc(-c2c(Cl)cccc2Cl)c1COc1ccc(C=Cc2cccc(C(=O)O)c2)c(Cl)c1`, the cytotoxicity call in the assay with HSkMC and with HepG2 was “inactive” each time. Moreover, in the assay with S. aureus RN4220, the growth inhibition call is “inactive”.

For the molecule `O=C(C[C@H]1C[C@H]2c3cc(NC(=O)c4cccnc4)ccc3O[C@H]2[C@@H](CO)O1)NCc1cc(F)ccc1F`, the cytotoxicity call in the assay with HSkMC and with HepG2 was “inactive” each time. For the same molecule, the growth inhibition call with S. aureus RN4220 is “inactive”.

Consider `C[C@@H]1CN([C@H](C)CO)C(=O)Cc2cc(NS(=O)(=O)c3ccccc3)ccc2O[C@H]1CN(C)Cc1ccc2c(c1)OCO2`, for which the cytotoxicity call in the assay on HSkMC and with HepG2 was “inactive” in each case. In the assay on S. aureus RN4220, the growth inhibition call is “inactive”.

In the case of `COC[C@@H]1CN(C)N=C(C2CC2)O1`, the cytotoxicity call in the assay with HSkMC and in the assay on HepG2 was “inactive” in each case. Also, in the assay with S. aureus RN4220, the growth inhibition call is “inactive”.

Consider `Cc1ccc(S(=O)(=O)N(C)C[C@@H]2Oc3ccc(NC(=O)NC(C)C)cc3C(=O)N([C@@H](C)CO)C[C@H]2C)cc1`, for which the cytotoxicity call with HSkMC and in the assay with HepG2 was “inactive” in each case. Moreover, the growth inhibition call with S. aureus RN4220 is “inactive”.

Consider `Cc1cc(=O)nc(-n2ncc(C#N)c2N)[nH]1`, for which the cytotoxicity call in the assay with HSkMC and with HepG2 was “inactive” throughout. Further, the growth inhibition call with S. aureus RN4220 was “inactive”.

As for `COc1ccc(CN(C)C[C@H]2Oc3ccc(NS(C)(=O)=O)cc3CC(=O)N([C@H](C)CO)C[C@@H]2C)cc1`, the cytotoxicity call with HSkMC and in the assay with HepG2 was “inactive” throughout. Also, the growth inhibition call in the assay with S. aureus RN4220 was “inactive”.

On to `COc1ccc(-c2cc(=O)c3c(OC)c(OC)c(OC)c(OC)c3o2)cc1OC`, for which the cytotoxicity call in the assay with HSkMC and in the assay with HepG2 was “inactive” each time. In the assay with S. aureus RN4220, the growth inhibition call was “inactive”.

Regarding `O=C(C[C@H]1C[C@H]2c3cc(NC(=O)NC4CCCC4)ccc3O[C@H]2[C@@H](CO)O1)NCCN1CCCCC1`, the cytotoxicity call in the assay on HSkMC and with HepG2 was “inactive” each time. Further, the growth inhibition call in the assay on S. aureus RN4220 was “inactive”.

With `C[C@@H]1CN([C@@H](C)CO)C(=O)CCCn2nncc2CO[C@@H]1CN(C)C(=O)Nc1ccc(N2CCCCC2)cc1`, the cytotoxicity call in the assay on HSkMC and in the assay with HepG2 was “inactive” in each case. Further, the growth inhibition call in the assay with S. aureus RN4220 was “inactive”.

For the molecule `O=C1[N-]C(=O)C(c2ccccc2)(c2ccccc2)N1.[Na+]`, the cytotoxicity call in the assay with HSkMC and in the assay on HepG2 was “inactive” each time. Also, the growth inhibition call in the assay on S. aureus RN4220 was “inactive”.

Regarding `C[C@@H]1CN([C@H](C)CO)C(=O)c2cc(NS(C)(=O)=O)ccc2O[C@H]1CN(C)C(=O)Nc1ccc(C(F)(F)F)cc1`, the cytotoxicity call in the assay on HSkMC and in the assay on HepG2 was “inactive” in each case. The growth inhibition call with S. aureus RN4220 was “inactive”.

On to `C[C@@H]1CN([C@H](C)CO)C(=O)c2cc(NC(=O)CCCN(C)C)ccc2O[C@H]1CN(C)C(=O)Nc1ccccc1`, for which the cytotoxicity call with HSkMC and in the assay with HepG2 was “inactive” in each case. The growth inhibition call in the assay with S. aureus RN4220 is “inactive”.

With `C[C@@H]1CN([C@H](C)CO)C(=O)Cc2cc(NC(=O)C3CCCCC3)ccc2O[C@@H]1CN(C)C(=O)Nc1ccc(C(F)(F)F)cc1`, the cytotoxicity call in the assay on HSkMC and with HepG2 was “inactive” each time. The growth inhibition call with S. aureus RN4220 was “inactive”.

Take `C[C@H](CO)N1C[C@H](C)[C@H](CN(C)Cc2ccc(-c3ccccc3)cc2)Oc2ccc(NC(=O)CCCCCC(=O)Nc3ccccc3N)cc2CC1=O`: the cytotoxicity call with HSkMC was “inactive”. In the assay with HepG2, the cytotoxicity call was “active”. In addition, the growth inhibition call in the assay with S. aureus RN4220 is “inactive”.

Regarding `C[C@@H]1CN([C@H](C)CO)C(=O)c2cc(NC(=O)CCCN(C)C)ccc2O[C@@H]1CN(C)S(=O)(=O)c1ccc(Cl)cc1`, the cytotoxicity call in the assay with HSkMC and in the assay with HepG2 was “inactive” throughout. In the assay on S. aureus RN4220, the growth inhibition call was “inactive”.

As for `COc1cccc(S(=O)(=O)Nc2ccc3c(c2)C(=O)N(C)C[C@@H](OC)[C@@H](C)CN(C(=O)Cc2cccnc2)[C@H](C)CO3)c1`, the cytotoxicity call with HSkMC and in the assay on HepG2 was “inactive” each time. The growth inhibition call in the assay on S. aureus RN4220 is “inactive”.

For `C[C@@H]1CN([C@H](C)CO)C(=O)c2cccc(NC(=O)c3ccncc3)c2O[C@@H]1CN(C)C(=O)Nc1ccc2c(c1)OCO2`, the cytotoxicity call with HSkMC and in the assay on HepG2 was “inactive” each time. Besides, the growth inhibition call with S. aureus RN4220 was “inactive”.

`COC(=O)CSc1nc(=O)c(C)n[nH]1`: the cytotoxicity call in the assay with HSkMC and in the assay on HepG2 was “inactive” throughout. In the assay with S. aureus RN4220, the growth inhibition call was “inactive”.

Regarding `C[C@@H]1CCCCO[C@H](CN(C)C(=O)Nc2cccc3ccccc23)[C@@H](C)CN([C@H](C)CO)C(=O)c2cc(NC(=O)c3ccncc3)ccc2O1`, the cytotoxicity call in the assay on HSkMC (human skeletal muscle cells) and in the assay on HepG2 was “inactive” each time. In addition, the growth inhibition call in the assay on S. aureus RN4220 was “inactive”.

As for `COc1ccc(S(=O)(=O)Nc2cccc3c2O[C@@H](CN(C)S(=O)(=O)c2ccc(C)cc2)[C@H](C)CN([C@H](C)CO)C3=O)cc1`, the cytotoxicity call with HSkMC and in the assay on HepG2 was “inactive” throughout. For the same molecule, in the assay with S. aureus RN4220, the growth inhibition call was “inactive”.

Turning to `CC(C)NC(=O)N(C)C[C@H]1Oc2ccc(NC(=O)CCC(F)(F)F)cc2C(=O)N([C@@H](C)CO)C[C@@H]1C`, the cytotoxicity call with HSkMC and with HepG2 was “inactive” each time. In addition, the growth inhibition call in the assay on S. aureus RN4220 was “inactive”.
